# Measurements reported in the supplement of paper PMC7826260.
# This is one part of the list. Cleavage of a single-stranded DNA pool by Rep nickase domains was read by sequencing (3 µM enzyme, 1 h, 37 °C); shown is the middle of each 90-letter strand. The score is log2 (uncut reads / reads without enzyme); more negative means more cut, near 0 not cut, and no call is made. The scaling is to total reads, so uncut sequences can rise above 0 when many others are cut.
# System: T1, Rep nickase domain of maize striate mosaic virus
# T1 sequence (protein, residues 1-117, tag omitted): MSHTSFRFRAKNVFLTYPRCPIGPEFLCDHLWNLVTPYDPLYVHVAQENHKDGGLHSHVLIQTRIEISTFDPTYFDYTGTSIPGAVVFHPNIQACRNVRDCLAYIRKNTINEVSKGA
# Assay: uncleaved DNA left, log2 of reads against the no-enzyme library (log2 ratio); higher = less cleavage (more negative = more Rep cleavage of the k-mer); sequences stand for … in CTCGTCCG…ACCGGAGA
# Experimental: (§1)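 A pool of 90-nt single-stranded DNAs with seven random bases just before the constant AC of the nick site (name = the seven bases) was cut by 3 µM recombinant His6-SUMO-tagged Rep nickase domain (300 nM DNA, 50 mM HEPES pH 8.0, 50 mM NaCl, 1 mM MnCl2, 1 h, 37 °C, three replicates). Uncut DNA was amplified and sequenced.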
row,Sequence,uncleaved DNA left (log2)
1,TCGCGGC,-0.739
2,CTATTCA,-0.954
3,GGAAGGG,0.242
4,AGAACGG,1.44
5,TGCAATT,-0.417
6,GCAAGAC,0.329
7,TTCAAAT,-0.0547
8,GAGGGGA,1.82
9,ACCGACT,0.00315
10,GTTGAAA,1.9
11,CAATCCG,-0.8
12,ATCCCTA,-0.375
13,ACATGCC,-1.1
14,TAGCCAC,-0.364
15,ATACTGG,-0.581
16,GATTAAG,-1.14
17,TCACTTA,-0.464
18,TTCATCA,0.522
19,CGCCTTG,0.0402
20,AATAGCG,-0.24

row,Sequence,uncleaved DNA left (log2)
1,TAACATA,-0.383
2,CGGATGT,1.54
3,GGGGTGC,2.06
4,CTCTTTG,-0.9
5,GGCTGTA,1.7
6,ACCATTG,-0.542
7,GCGATCA,0.656
8,GCGAGCG,-0.666
9,GTGAGAT,2.14
10,CCCCGGT,1.55
11,TATGGAT,1.9
12,ACGTTCG,-0.841
13,GCGCCGT,-0.244
14,CGCTCGA,-1.03
15,GCAGTGA,-0.519
16,TTAACGT,-0.332
17,GAGCTAT,1.08
18,CATGTAA,-0.974
19,GGTAAAC,1.83
20,CTCTTTT,-0.646

# System: T2, Rep nickase domain of porcine circovirus 2
# T2 sequence (protein, residues 2-116, tag omitted): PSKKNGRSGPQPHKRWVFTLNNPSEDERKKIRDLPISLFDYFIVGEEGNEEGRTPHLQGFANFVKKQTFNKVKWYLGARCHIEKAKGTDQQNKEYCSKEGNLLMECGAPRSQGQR
# Assay: as above
# Experimental: as §1
row,Sequence,uncleaved DNA left (log2)
1,TCGCGGC,0.0681
2,CTATTCA,-0.187
3,GGAAGGG,0.227
4,AGAACGG,0.225
5,TGCAATT,-0.476
6,GCAAGAC,0.175
7,TTCAAAT,-0.348
8,GAGGGGA,0.102
9,ACCGACT,0.148
10,GTTGAAA,0.237
11,CAATCCG,0.127
12,ATCCCTA,-0.145
13,ACATGCC,0.117
14,TAGCCAC,-0.311
15,ATACTGG,0.0824
16,GATTAAG,0.0893
17,TCACTTA,-0.162
18,TTCATCA,0.0877
19,CGCCTTG,-0.102
20,AATAGCG,0.00681

row,Sequence,uncleaved DNA left (log2)
1,TAACATA,-0.0193
2,CGGATGT,0.0604
3,GGGGTGC,0.164
4,CTCTTTG,0.029
5,GGCTGTA,0.149
6,ACCATTG,0.152
7,GCGATCA,-0.0954
8,GCGAGCG,0.0225
9,GTGAGAT,0.448
10,CCCCGGT,-0.12
11,TATGGAT,0.105
12,ACGTTCG,0.119
13,GCGCCGT,-0.0634
14,CGCTCGA,-0.182
15,GCAGTGA,0.103
16,TTAACGT,0.0634
17,GAGCTAT,-1.88
18,CATGTAA,0.0451
19,GGTAAAC,0.13
20,CTCTTTT,-3.22

# System: T3, Rep nickase domain of tomato yellow leaf curl virus
# T3 sequence (protein, residues 1-136, tag omitted): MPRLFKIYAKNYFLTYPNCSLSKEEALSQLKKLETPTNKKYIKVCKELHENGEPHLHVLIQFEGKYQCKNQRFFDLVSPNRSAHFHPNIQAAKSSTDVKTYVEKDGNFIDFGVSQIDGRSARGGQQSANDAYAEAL
# Assay: as above
# Experimental: as §1
row,Sequence,uncleaved DNA left (log2)
1,TCGCGGC,-0.0166
2,CTATTCA,0.0409
3,GGAAGGG,0.011
4,AGAACGG,0.0144
5,TGCAATT,0.0706
6,GCAAGAC,0.0594
7,TTCAAAT,0.138
8,GAGGGGA,-0.103
9,ACCGACT,0.248
10,GTTGAAA,0.0871
11,CAATCCG,-0.118
12,ATCCCTA,-0.065
13,ACATGCC,0.0972
14,TAGCCAC,0.0433
15,ATACTGG,0.0205
16,GATTAAG,-0.01
17,TCACTTA,0.0848
18,TTCATCA,0.173
19,CGCCTTG,-0.211
20,AATAGCG,0.0118

row,Sequence,uncleaved DNA left (log2)
1,TAACATA,0.103
2,CGGATGT,-0.0356
3,GGGGTGC,-0.0453
4,CTCTTTG,0.127
5,GGCTGTA,0.114
6,ACCATTG,0.0784
7,GCGATCA,-0.0564
8,GCGAGCG,-0.00647
9,GTGAGAT,0.272
10,CCCCGGT,-0.0918
11,TATGGAT,-0.149
12,ACGTTCG,0.0841
13,GCGCCGT,-0.0583
14,CGCTCGA,-0.186
15,GCAGTGA,-0.00978
16,TTAACGT,-0.0456
17,GAGCTAT,0.041
18,CATGTAA,0.0467
19,GGTAAAC,-0.00546
20,CTCTTTT,0.0575
